According to PubChem BioAssay AID485364 (National Center for Advancing Translational Sciences (NCATS), 2010):
Screen size: about 360,000 compounds; about 11,000 (3.1%) were called active. This list was built around the results that the source calls inconclusive (neither active nor inactive); the mix of calls is not that of the screen. Calls come from the whole dose curve; as a rule, active = well fitted inhibition curve with a large enough effect; inconclusive = small, poorly fitted or top-dose-only effect; inactive = no such curve, though single readings can be large or run the other way. No potency is given beside an inconclusive call; the fits are too rough.

Molecular target: Schistosoma mansoni thioredoxin glutathione reductase (TGR) (UniProt Q962Y6)
Experiment: qHTS Assay for the Inhibitors of Schistosoma Mansoni Peroxiredoxins; note: nearly all actives have a fitted effect of over 60% in size
Settings: purified TGR, DTNB reduction, TNB absorbance 405 nm; activity change, negative = inhibition: at 114 µM (top of the series) unless noted
Procedure, shortened: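 First, TGR (20 nM dispensed) and NADPH were mixed with compound. Second, a 15 min room-temperature incubation followed. Third, further NADPH and then DTNB were added to start the reaction. Finally, TNB absorbance was monitored kinetically.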
% is set by controls: 0 for no effect and ±100 for the full control effect; potency is the fitted concentration of half-maximal effect; tags give direction and shape of the fitted curve.

Structure (SMILES)	Potency	activity change, negative = inhibition
COc1cc(NC(=O)C2CCCCN2)ccc1OCC(C)C (stereo unspecified)	inconclusive [inhibitor, partial curve]	–
O=C(c1cccn2c(=O)c3cc(Cl)ccc3nc12)N1CCN(Cc2ccc3c(c2)OCO3)CC1	inconclusive [inhibitor, full curve]	–
CCCNC(=O)CSc1nc(-c2cccs2)cc(C(F)(F)F)n1	–	inactive: -5.11%
COc1ccc(/C=N/Nc2ccccn2)c(OC)c1OC	–	inactive: -14.9%
Oc1cc2c(cc1CN1CCN(c3ccccc3F)CC1)OCO2	active: 1 µM	–
O=C(CSc1nnc(NCc2ccccc2)s1)c1ccco1	–	inactive: -0.33%
COc1ccccc1-c1nc2c(c(SCC(=O)N3CCCCC3)n1)Cc1c(CO)cnc(C)c1O2	inconclusive [inhibitor, partial curve]	–
COCCN(CCOC)C(=S)Nc1ccccc1	–	inactive: 0.589%
COc1cccc(CNC(=O)Cc2csc3ccccc23)c1OC	–	inactive: 1.35%
CCN1CCN(C2=C(NS(=O)(=O)c3ccc(NC(C)=O)cc3)C(=O)c3ccccc3C2=O)CC1	inconclusive [inhibitor, partial curve]	–
COc1ccc(N2C(=O)CC(N3CCC(c4nc5ccccc5[nH]4)CC3)C2=O)cc1 (stereo unspecified)	active: 39.8 µM	–
N#CC(C#N)=C1CCc2ccccc2N1	inconclusive [inhibitor, full curve, poor fit]	–
O=C(N/N=C/c1ccc(O)cc1)c1cccc(N/N=C/c2ccc(O)cc2)c1	inconclusive [inhibitor, partial curve]	–
O=C(Nc1ccc(N2CCCC2)cc1)c1ccccc1F	inconclusive [inhibitor, partial curve]	–
Cc1ccc(S(=O)(=O)/C(=C\N(C)C)c2cnc(Cl)s2)cc1	inconclusive [inhibitor, partial curve]	–
COc1cc(CNCc2cccnc2)ccc1OCc1ccccc1	–	inactive: -7.42%
CC1CC(C)CN(C(=O)c2ccc3ncsc3c2)C1 (stereo unspecified)	–	inactive: -1.2%
CCOC(=O)C1=C(C)N(C)C(=S)NC1c1ccccc1 (stereo unspecified)	inconclusive [inhibitor, single point]	–
CC12CCC(=O)N1C(C(=O)Nc1cccc(S(=O)(=O)N3CCCCC3)c1)CS2 (stereo unspecified)	–	inactive: 2.06%
O=C(NCc1ccco1)C(c1ccco1)N(Cc1cccs1)C(=O)Cn1nnc2ccccc21 (stereo unspecified)	inconclusive [inhibitor, partial curve]	–
Cc1cc(C)c(Cn2c3ccccc3c3cnn(CC(=O)N4CCCCCC4)c(=O)c32)c(C)c1	–	inactive: -7.32%
CC(=O)N1CCN(C(=O)c2ccc(Cl)c(NC(=O)c3cccs3)c2)CC1	–	inactive: 4.76%
Cc1cc(C)cc(NC(=O)c2cc(S(=O)(=O)NCc3ccco3)ccc2F)c1	inconclusive [inhibitor, partial curve]	–
Cc1cc2c(cc(C(=O)NCc3cccnc3)n2Cc2ccc(Cl)cc2)o1	inconclusive [inhibitor, partial curve]	–

Structure (SMILES)	Potency	activity change, negative = inhibition
CCn1c(O)c(/C=N/NC(=O)c2ccncc2)c(=O)[nH]c1=S	inconclusive [inhibitor, partial curve]	–
C#CCCc1cocc1/C=[N+](\[O-])c1ccc(C(=O)OCC)cc1	inconclusive [inhibitor, partial curve]	–
Cc1ccc(SCC(=O)OCC(=O)N(CCC#N)c2ccccc2)cc1C	inconclusive [inhibitor, partial curve]	–
Cn1cc(CNC(=O)CC2C(=O)NCCN2CC(C)(C)C)cn1 (stereo unspecified)	inconclusive [inhibitor, partial curve]	–
O=C(CN1CCCc2ccccc21)NC(=O)NC1CCCCC1	inconclusive [inhibitor, partial curve]	–
COc1ccc(S(=O)(=O)n2nc(OC(C)=O)cc2N(C(C)=O)C(C)=O)cc1	active: 22.4 µM	–
COc1ccc(-c2onc(C)c2C)cc1S(=O)(=O)N1c2ccccc2CC1C (stereo unspecified)	–	inactive: 0.434%
Cc1cc(C)n(-c2ccc(C(=O)OCC(=O)c3ccc(Br)s3)cc2)n1	inconclusive [inhibitor, partial curve]	–
Cc1cc(C)n2nc(SCc3ncc(-c4ccccc4)o3)nc2n1	inconclusive [inhibitor, full curve]	–
COc1cc(NC(=O)c2ccco2)c(C(=O)O)cc1OC	active: 39.8 µM	–
Cc1cccc(NC(=O)C2CCN(c3nnc(-n4c(C)ccc4C)s3)CC2)c1C	inconclusive [inhibitor, partial curve]	–
O=c1cc(CN2CCN(Cc3ccccc3)CC2)c2cc3c(cc2o1)CCC3	active: 35.5 µM	–
COc1ccc(C)cc1S(=O)(=O)N1CCN(Cc2ccccc2)CC1	inconclusive [inhibitor, single point]	–
CC(=O)c1c(C)[nH]c(C(=O)OCC(=O)N2CCN(S(=O)(=O)c3ccc(C)cc3C)CC2)c1C	inconclusive [inhibitor, single point]	–
COc1ccc(Cc2nnc(SCc3c(C)noc3C)n2C2CCCCC2)cc1OC	–	inactive: -25.3%
CCCOc1ccc(/C(O)=C2/C(=O)C(=O)N(CCCn3ccnc3)C2c2ccc(C)o2)cc1 (stereo unspecified)	inconclusive [inhibitor, partial curve]	–
COc1ccc(N(C(=O)Cn2nnc3ccccc32)C(C(=O)NCc2ccco2)c2ccncc2)cc1 (stereo unspecified)	inconclusive [inhibitor, partial curve]	–
CCC(=O)c1ccc(OC(=O)c2cnccn2)cc1	inconclusive [inhibitor, partial curve]	–
CC[C@@]1(O)C(=O)OCc2c1cc1n(c2=O)Cc2cc3c(NC(=O)CN)cccc3nc2-1	inconclusive [inhibitor, full curve]	–
O=C(O)/C=C/C(=O)NNC(=O)c1ccc(Br)cc1	inconclusive [inhibitor, partial curve]	–
Cc1noc(C)c1COc1ccccc1C(=O)N(C)Cc1ccc(F)cc1	–	inactive: -16.2%
CN(C)c1ccc(N2C(=O)CC(Nc3ccc(N4CCOCC4)cc3)C2=O)cc1 (stereo unspecified)	inconclusive [inhibitor, partial curve]	–
CCOC(=O)c1c(C)n(Cc2ccco2)c2ccc(OC)cc12	inconclusive [inhibitor, partial curve]	–
Cc1c(-c2ccccc2)c(P(=O)(N2CCOCC2)N2CCOCC2)c2ccccn12	inconclusive [inhibitor, full curve, poor fit]	–

Structure (SMILES)	Potency	activity change, negative = inhibition
COC(=O)c1ccc(Cn2cnc3c(sc4nc(N5CCOCC5)c5c(c43)CCCC5)c2=O)o1	inconclusive [inhibitor, partial curve]	–
CCOC(=O)C1=C(C)OC(N)=C(C#N)C1c1ccccc1 (stereo unspecified)	inconclusive [inhibitor, full curve]	–
Cc1cc(NC(=O)c2ccc3c(c2)OCO3)ccc1NC(=O)c1ccco1	–	inactive: -2.04%
Cc1ccc2[nH]c(O)c(N=Nc3ccccc3C)c2c1	active: 22.4 µM	–
Cc1ccc(/C=C2\CC(C)CC3=C2NC(=S)NC3c2ccc(C)cc2)cc1 (stereo unspecified)	active: 15.8 µM	–
CC(=O)C1C(=O)c2c(cccc2[N+](=O)[O-])C1=Nc1ccc(S(N)(=O)=O)cc1 (stereo unspecified)	inconclusive [inhibitor, full curve]	–
O=C(O)c1ccc(N/N=C/C=C/c2ccc([N+](=O)[O-])o2)cc1	inconclusive [inhibitor, partial curve]	–
CC(=O)NNc1cccc(Cl)n1	inconclusive [inhibitor, single point]	–
COC(CNC(=O)CC1C(=O)N(Cc2ccccc2)C(C)c2nc3ccccc3n21)OC (stereo unspecified)	–	inactive: -6.33%
O=C(c1ccco1)N1CCN(c2nc3ccsc3c(=O)s2)CC1	inconclusive [inhibitor, partial curve]	–
Cc1ccc(-c2nn3c(C)nnc3s2)cc1NC(=O)c1ccco1	inconclusive [inhibitor, partial curve]	–
N#Cc1nc(COc2ccccc2F)oc1NCCc1ccccc1	–	inactive: -33.8%
COc1ccc(CNC(=O)c2ccc(S(=O)(=O)NCc3ccco3)cc2)cc1	inconclusive [inhibitor, single point]	–
Cc1ccc(N2C(=O)C(Cl)=C(N3CCN(C)CC3)C2=O)c(C)c1	inconclusive [inhibitor, partial curve]	–
CCS(=O)(=O)Nc1ccc(-c2nnc(SCC(=O)c3ccc(NC(C)=O)c(OC)c3)o2)cc1	inconclusive [inhibitor, full curve, poor fit]	–
COC/C=C/C1=CC(=O)C[C@H](c2ccc3c(c2)OCO3)C1	inconclusive [inhibitor, full curve, poor fit]	–
O=C(N/N=C/c1ccc([N+](=O)[O-])o1)c1ccncc1	inconclusive [inhibitor, partial curve]	–
Cc1cccc(C2Nc3cccc4cccc(c34)N2)c1	active: 20 µM	–
Cc1cc(C)cc(NC(=O)CS(=O)(=O)c2cccc3nsnc23)c1	inconclusive [inhibitor, partial curve]	–
COc1ccc(N2C(=O)CC(Sc3nnc(-c4ccccc4)o3)C2=O)cc1 (stereo unspecified)	active: 3.55 µM	–
Cc1c(NC(C)c2cc(Cl)ccc2O)c(=O)n(-c2ccccc2)n1C (stereo unspecified)	inconclusive [inhibitor, partial curve]	–
O=c1c(Cl)c(Cl)cnn1Cc1ccc(F)cc1	active: 20 µM	–
CCc1c(C)nc2cc(-c3cc(OC)cc(OC)c3)nn2c1N1CCCC1	–	inactive: 1.27%
